In PMC4242493:
This is one part of the list. The list includes weakly bound sequences.

What follows are sequences tested against MaxL homodimer (UniProt P61244) (assay: universal protein-binding microarray (PBM)). Settings: PBS-based mixture, 10 nM His-tagged protein dimer, 2% milk, 200 ng/uL BSA, 50 ng/uL salmon testes DNA, 0.02% TX-100; detection with Alexa 488 anti-His …; high values mean tight binding; most listed sequences are background and not binding sites; double strand, one strand shown.
UniProt P61244, sequence (P61244 whole entry): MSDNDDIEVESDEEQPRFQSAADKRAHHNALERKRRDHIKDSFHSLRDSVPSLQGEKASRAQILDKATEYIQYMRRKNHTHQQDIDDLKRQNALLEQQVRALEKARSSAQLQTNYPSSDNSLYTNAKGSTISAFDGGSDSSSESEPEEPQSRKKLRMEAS

Sequence	binding signal (normalized occupancy)
GACTGCAC	0.0697
CAAAAGCC	0.0674
GCTCACTA	0.0758
GACAAGAA	0.0761
CATCTCGA	0.0817
CGAAAGTA	0.0748
AGTTCTGG	0.068
AAGTAAAC	0.0718
GTGCGTGA	0.0887
CTTTGACA	0.0747
ATTATCAC	0.085
GTAGGTGA	0.0726
CCGACAGA	0.0688
CTCCATCA	0.0804
ACCTGCCC	0.0751
CGCTACAG	0.0703
ACGGCCAT	0.0797
ACATCGCT	0.0756
CCTTAAGG	0.0719
GACATATA	0.0893
GTAGTGCA	0.074
ACACTCCT	0.0744

Sequence	binding signal (normalized occupancy)
ATTAGGAC	0.0741
AGGAATAA	0.0754
CATCGCTA	0.0757
CGTATAGA	0.075
GCTTTTCC	0.0711
GGTAAACA	0.0781
ATGTATGG	0.085
ACGAGATG	0.0758
CAAAAACG	0.0717
AGTCTTGA	0.0689
CGTGCTGA	0.095
CAAGTCGG	0.075
TCCCATAA	0.0766
AGGGCCTG	0.0751
CCTGCTCA	0.0788
GTTTTGCA	0.0717
GTCGCCAC	0.0755
CGGCCGAC	0.0661
ACCGGACC	0.0681
TCGACAGA	0.0736
ATTAAGGG	0.074
ACCGGGAG	0.0756

Sequence	binding signal (normalized occupancy)
GCTTACAA	0.0718
AGAGATTG	0.0785
CGGTGTGA	0.0813
AGAAGGAT	0.0788
CAAATCTC	0.0775
ATATTCCC	0.0798
ATTTATTC	0.0788
AACGCAAT	0.0716
GTTGCAAC	0.0734
CGCGCTCA	0.0722
ACAGTCAG	0.0747
ATTAGGTG	0.0774
GGGTCTTA	0.0763
AAATTAAT	0.0772
TGACAACA	0.0803
ACACACAG	0.0801
CACATGTC	0.159
AGAACACG	0.0941
CTTCTTTC	0.0757
ACAATTTG	0.0746
TACAATAA	0.0739
GAGTGTAC	0.0756

Sequence	binding signal (normalized occupancy)
CACATAAC	0.0843
ACTTTTCT	0.0737
GAGCCAGC	0.0658
AGATATCT	0.07
GGAACTTA	0.0705
AAGCCGTA	0.0719
CTACTATC	0.0774
CTTTTTCA	0.0749
TCCTTCGA	0.0691
CGTTTCCA	0.0827
GTATACCA	0.0795
ATTTCTGA	0.0779
GTGGAGAA	0.0797
AAACACCT	0.0798
CAGTGCTA	0.0757
AGCGTCCA	0.069
AAAGACGG	0.068
GACCGGCC	0.0683
CCACTTAA	0.0687
GAGATTAC	0.0753
